Measurements reported in PubChem BioAssay AID1794842 (National Center for Advancing Translational Sciences (NCATS), 2023).
Out of some 2,800 compounds screened, fewer than 10 were called active. Calls follow the shape of the dose curve; as a rule, active = well fitted curve in the direction sought with a large enough effect; inconclusive = small, poorly fitted or top-dose-only effect, or another doubt; inactive = no such curve, though single readings can be large or run the other way. The list shows a part of the results.

Target: Metallo-beta-lactamase type 2 (Klebsiella pneumoniae) (UniProt C7C422)
Chain of UniProt C7C422 (C7C422 whole entry, looked up): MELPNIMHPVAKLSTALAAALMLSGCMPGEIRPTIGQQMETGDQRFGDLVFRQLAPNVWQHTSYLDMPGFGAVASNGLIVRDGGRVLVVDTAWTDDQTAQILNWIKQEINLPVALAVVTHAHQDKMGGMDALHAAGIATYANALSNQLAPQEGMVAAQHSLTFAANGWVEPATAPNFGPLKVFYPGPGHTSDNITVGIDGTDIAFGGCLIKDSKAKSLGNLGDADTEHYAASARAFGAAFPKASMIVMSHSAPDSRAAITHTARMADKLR
Test: qHTS to identify inhibitors of the New Delhi Metallo-beta-lactamase (NDM): Meropenem screen against the machine-based learning selections. Also: % of control where 0% means no effect.
Conditions: Purified NDM-1, meropenem hydrolysis, absorbance 300 nm; at 57.5 µM (top of the series) unless noted
Outline: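 Hydrolysis by 2 nM NDM-1 was followed by absorbance after >30 min compound preincubation in HEPES pH 7.0 buffer with 1 uM Zn2SO4. For nitrocefin (16.7 uM, 15 min, 485 nm) and meropenem (50 uM, 30 min, 300 nm), each substrate ran on separate plates.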

**Q.** O=C1CO[C@H]2CN(Cc3ccncc3)C[C@H]2N1Cc1ccccc1 was tested. Which activity change, negative = inhibition did it give?
**A.** Its activity change, negative = inhibition is inactive: 4.58%.

**Q.** Which activity change, negative = inhibition does the source give for C#C[C@H]1CN2CC[C@H]1C[C@@H]2CNCc1ccc(C(F)(F)F)cc1 here?
**A.** Its activity change, negative = inhibition is inactive: -0.0776%.

**Q.** Which activity change, negative = inhibition does the source give for CSCC(=O)N1C[C@@H]2C[C@H](C1)c1c(-c3ccc(NC(C)=O)cc3)ccc(=O)n1C2 here?
**A.** Its activity change, negative = inhibition is inactive: 4.49%.

**Q.** With CN(C)c1ccc(C(=O)NC[C@H]2C[C@@H]3CCN2C[C@@H]3CN(C)c2ccccc2)cc1 as the compound, how does the activity change, negative = inhibition read?
**A.** The activity change, negative = inhibition was inactive: 2.37%.

**Q.** How did the activity change, negative = inhibition turn out when CSCC(=O)Nc1ccc2n(c1=O)C[C@H]1C[C@@H]2CN(C(=O)COc2ccccc2)C1 was run?
**A.** Its activity change, negative = inhibition is inactive: 19.4%.

**Q.** COc1cc2c(cc1OCc1ccncc1)NC(=O)C21CCN(Cc2ccccc2O)CC1 was tested. Which activity change, negative = inhibition did it give?
**A.** The activity change, negative = inhibition was inactive: 4.89% [at 38.4 µM].

**Q.** With Cc1ccc(S(=O)(=O)NC[C@H]2C[C@@H]3CCN2C[C@@H]3CN2CCCCC2)cc1 as the compound, how does the activity change, negative = inhibition read?
**A.** The activity change, negative = inhibition was inactive: -1.88%.

**Q.** With CC(C)NC(=O)NC[C@H]1C[C@@H]2CCN1C[C@@H]2CN1CCN(c2ccccn2)CC1 as the compound, how does the activity change, negative = inhibition read?
**A.** The activity change, negative = inhibition was inactive: 0.315%.

**Q.** For O=C(Nc1nccs1)[C@H]1CN2CCC1C[C@@H]2Cn1cc(CC2CCCCC2)nn1 (some centres undefined), which activity change, negative = inhibition is on record?
**A.** The activity change, negative = inhibition was inactive: 5.28%.

**Q.** With COc1ccccc1-c1cc([C@H]2CN3CC[C@H]2C[C@@H]3CNC(=O)N2CCOCC2)n(C)n1 as the compound, how does the activity change, negative = inhibition read?
**A.** The activity change, negative = inhibition was inactive: -1%.

**Q.** For O=C(NC[C@H]1C[C@@H]2CCN1C[C@@H]2CN1CCN(c2ccc(F)cc2)CC1)c1ccco1, which activity change, negative = inhibition is on record?
**A.** Its activity change, negative = inhibition is inactive: -0.0973%.

**Q.** For CC[C@H]1CN2CC[C@H]1C[C@@H]2CNS(=O)(=O)c1ccc(NC(C)=O)cc1, which activity change, negative = inhibition is on record?
**A.** The activity change, negative = inhibition was inactive: 36.8%.

**Q.** Which activity change, negative = inhibition does the source give for CCCCc1cn(C[C@H]2CC3CCN2C[C@@H]3C(=O)NCc2ccc3c(c2)OCO3)nn1 (some centres undefined) here?
**A.** Its activity change, negative = inhibition is inactive: -4.5%.

**Q.** For CCNC(=O)NC[C@H]1C[C@@H]2CCN1C[C@@H]2c1cc(-c2ccc(F)cc2)nn1C, which activity change, negative = inhibition is on record?
**A.** Its activity change, negative = inhibition is inactive: -0.887%.

**Q.** With Cc1nc(-c2ccc(C(F)(F)F)cc2)cc([C@H]2CN3CC[C@H]2C[C@@H]3CNC(=O)N2CCOCC2)n1 as the compound, how does the activity change, negative = inhibition read?
**A.** The activity change, negative = inhibition was inactive: -1.71% [at 38.4 µM].

**Q.** For Cn1nc(-c2ccccc2)cc1[C@H]1CN2CC[C@H]1C[C@@H]2CNC(=O)c1ccco1, which activity change, negative = inhibition is on record?
**A.** Its activity change, negative = inhibition is inactive: 0.292%.

**Q.** CC(C)(C)c1ccc(NC(=O)OC[C@H]2C[C@@H]3CCN2C[C@@H]3c2cc(C3CCCC3)nc(-c3ccncc3)n2)cc1 was tested. Which activity change, negative = inhibition did it give?
**A.** Its activity change, negative = inhibition is inactive: -1.83% [at 38.4 µM].

**Q.** For O=C(Cc1ccc(F)cc1Cl)N1C[C@H]2CC[C@@H]1CN(Cc1cccnc1)C2, which activity change, negative = inhibition is on record?
**A.** Its activity change, negative = inhibition is inactive: -3.88% [at 38.4 µM].

**Q.** Which activity change, negative = inhibition does the source give for CC[C@H]1CN2CC[C@H]1C[C@@H]2CNC(=O)c1ccc(-c2ccccc2)cc1 here?
**A.** The activity change, negative = inhibition was inactive: 1.87%.

**Q.** Which activity change, negative = inhibition does the source give for C=C[C@H]1CN2CC[C@H]1C[C@@H]2CNC(=O)Nc1ccc(C(C)(C)C)cc1 here?
**A.** Its activity change, negative = inhibition is inactive: 6.57%.

**Q.** CCCS(=O)(=O)Nc1ccc(=O)n2c1[C@@H]1C[C@@H](CN(C(=O)c3ccc(F)cc3)C1)C2 was tested. Which activity change, negative = inhibition did it give?
**A.** Its activity change, negative = inhibition is inactive: 1.26%.

**Q.** For CC(=O)N1C[C@@H]2C[C@H](C1)c1ccc(NC(=O)Nc3ccccc3)c(=O)n1C2, which activity change, negative = inhibition is on record?
**A.** Its activity change, negative = inhibition is inactive: 1.97%.

**Q.** How did the activity change, negative = inhibition turn out when CCCS(=O)(=O)N1C[C@@H]2C[C@H](C1)c1ccc(-c3ccc4ccccc4c3)c(=O)n1C2 was run?
**A.** Its activity change, negative = inhibition is inactive: 1.69%.

**Q.** With CCN1CCCNCC12CCOCC2 as the compound, how does the activity change, negative = inhibition read?
**A.** The activity change, negative = inhibition was inactive: 49.4% [at 38.4 µM].

**Q.** Which activity change, negative = inhibition does the source give for O=C(O)c1cn(Cc2ccc(F)cc2)nn1 here?
**A.** The activity change, negative = inhibition was inactive: 45.8% [at 38.4 µM].

**Q.** For COCCNC(=O)[C@H]1CN2CCC1C[C@@H]2Cn1cc(CCO)nn1 (some centres undefined), which activity change, negative = inhibition is on record?
**A.** The activity change, negative = inhibition was inactive: 2.94%.

**Q.** O=C(NCc1ccc(F)cc1)[C@H]1CN2CC[C@H]1C[C@@H]2Cn1cc(C2(O)CCCC2)nn1 was tested. Which activity change, negative = inhibition did it give?
**A.** The activity change, negative = inhibition was inactive: -0.552%.

**Q.** Which activity change, negative = inhibition does the source give for C=C[C@H]1CN2CC[C@H]1C[C@@H]2CNS(=O)(=O)c1cccs1 here?
**A.** The activity change, negative = inhibition was inactive: 31.6%.

**Q.** CC(C)NC(=O)[C@H]1CN2CC[C@H]1C[C@@H]2Cn1cc(CO)nn1 was tested. Which activity change, negative = inhibition did it give?
**A.** Its activity change, negative = inhibition is inactive: 1.66%.

**Q.** Which activity change, negative = inhibition does the source give for CCNC(=O)NC[C@H]1C[C@@H]2CCN1C[C@@H]2c1cc(C2CCCCC2)nn1C here?
**A.** The activity change, negative = inhibition was inactive: -0.757%.

**Q.** Cc1nc(-c2ccccc2Br)cc([C@H]2CN3CC[C@H]2C[C@@H]3CNC(=O)c2cccs2)n1 was tested. Which activity change, negative = inhibition did it give?
**A.** The activity change, negative = inhibition was inactive: -1.6% [at 38.4 µM].

**Q.** C=CCN(C)C(=O)[C@H]1CN2CCC1C[C@@H]2Cn1cc(CO)nn1 (some centres undefined) was tested. Which activity change, negative = inhibition did it give?
**A.** Its activity change, negative = inhibition is inactive: 15%.

**Q.** For O=C1N(Cc2cccnc2)C[C@H]2CN(C3CCOCC3)CCN12, which activity change, negative = inhibition is on record?
**A.** The activity change, negative = inhibition was inactive: -1.11%.

**Q.** How did the activity change, negative = inhibition turn out when Cc1nc(-c2ccco2)cc([C@H]2CN3CC[C@H]2C[C@@H]3CNC(=O)C(C)(C)C)n1 was run?
**A.** Its activity change, negative = inhibition is inactive: 11.4%.

**Q.** For CN(CCc1ccccn1)C[C@H]1CN2CC[C@H]1C[C@@H]2CNC(=O)c1ccc(C(F)(F)F)cc1, which activity change, negative = inhibition is on record?
**A.** Its activity change, negative = inhibition is inactive: 0.63% [at 38.4 µM].

**Q.** Which activity change, negative = inhibition does the source give for CCC(CC)c1cc([C@H]2CN3CC[C@H]2C[C@@H]3CNC(=O)COc2ccccc2)nc(-c2ccncc2)n1 here?
**A.** The activity change, negative = inhibition was inactive: 1.04% [at 38.4 µM].

**Q.** CC(=O)c1ccc(NC(=O)NC[C@H]2C[C@@H]3CCN2C[C@@H]3CN2CCC(Cc3ccccc3)CC2)cc1 was tested. Which activity change, negative = inhibition did it give?
**A.** The activity change, negative = inhibition was inactive: -1.49% [at 38.4 µM].

**Q.** CC[C@H]1CN2CC[C@H]1C[C@@H]2CNS(=O)(=O)c1cccc(C#N)c1 was tested. Which activity change, negative = inhibition did it give?
**A.** The activity change, negative = inhibition was inactive: 30.9%.

**Q.** For COCCNC(=O)[C@H]1CN2CCC1C[C@@H]2Cn1cc(-c2ccc(-c3ccccc3)cc2)nn1 (some centres undefined), which activity change, negative = inhibition is on record?
**A.** Its activity change, negative = inhibition is inactive: 2.08% [at 38.4 µM].

**Q.** Which activity change, negative = inhibition does the source give for CN(C)Cc1ccccc1-c1ccc2n(c1=O)C[C@H]1C[C@@H]2CN(C(=O)c2cnccn2)C1 here?
**A.** Its activity change, negative = inhibition is inactive: 5.24%.

**Q.** C#CCN(C)C[C@H]1CN2CC[C@H]1C[C@@H]2CNC(=O)Nc1ccc(C(C)=O)cc1 was tested. Which activity change, negative = inhibition did it give?
**A.** The activity change, negative = inhibition was inactive: 7.23%.

**Q.** How did the activity change, negative = inhibition turn out when COc1ccc(C(=O)NC[C@H]2C[C@@H]3CCN2C[C@@H]3c2cc(-c3ccc(N(C)C)cc3)nc(C)n2)cc1 was run?
**A.** Its activity change, negative = inhibition is inactive: -3.1% [at 38.4 µM].

**Q.** For C#C[C@H]1CN2CC[C@H]1C[C@@H]2CNC(=O)Nc1cccc(SC)c1, which activity change, negative = inhibition is on record?
**A.** The activity change, negative = inhibition was inactive: -2.26%.

**Q.** How did the activity change, negative = inhibition turn out when O=C(Cc1cccnc1)N1[C@H]2CC[C@@H]1c1cnc(-c3ccc(F)cc3)nc1C2 was run?
**A.** Its activity change, negative = inhibition is inactive: 0.941% [at 38.4 µM].
